# Values marked as one replicate rest on one cluster of the flow cell; about a third of the high ones do not repeat.
# Tested on: ATP
# Assay: switch fluorescence ratio, 500 uM ATP over buffer (Cy3 cluster intensity, sum of 5 cycles each) (fold (ratio)); higher = stronger signal-on switching upon ATP binding; sequences stand for … in TCGTCGGCAGCGTCAGATGTGTATAAGAGACAGTTTTTTTTTTTTTTTTTTTTTTTTT…TC
# Conditions: aptamer strand: ATP DNA aptamer (quencher-CACCTGGGGGAGTATTGCGGAGGAAGG + anchor), 100 nM annealed; ATP concentration: 500 uM; one replicate
# Outline: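 Per cluster, summed Cy3 intensity from the target cycles was divided by that from the buffer cycles to give the fluorescence ratio, then averaged per switch-domain sequence. Clusters outside 100-1000 RFU were excluded. The Cy3-labelled switching-strand clusters, on a modified Illumina MiSeq flow-cell, were annealed to 100 nM quencher-labelled ATP aptamer and imaged in selection buffer, then after 15 min with 500 uM ATP at 22 °C, for five cycles with NaOH stripping and re-annealing between them.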
# 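Also: ATP exposure 15 min at 22 °C before imaging.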
sequence,measurement,value
GTCTGAAGAG,switch fluorescence ratio,1.01
GCTATTTCGA,switch fluorescence ratio,0.973
GGCGCTATGT,switch fluorescence ratio,1.01
GACGCGAGTG,switch fluorescence ratio,1.12
GACATCGAAG,switch fluorescence ratio,0.971
TTATAAACC,switch fluorescence ratio,1.05
TACGTGACTA,switch fluorescence ratio,1.26
AACCGCGGTC,switch fluorescence ratio,1.01
TTTAGGACCG,switch fluorescence ratio,0.962
TTTAATGACG,switch fluorescence ratio,1.06
GAATTGCGGT,switch fluorescence ratio,0.961
ACCGTTAGTT,switch fluorescence ratio,1.01
TACAGACGGG,switch fluorescence ratio,0.979
TTTCATCGTG,switch fluorescence ratio,1.02
CATTGGGCGC,switch fluorescence ratio,0.997
GCTATATTGC,switch fluorescence ratio,1.1
TAAAGAGATA,switch fluorescence ratio,0.994
CAGGCCTTGC,switch fluorescence ratio,1.06
ACTTTGGCTG,switch fluorescence ratio,0.993
CATTATCAGT,switch fluorescence ratio,0.973
AATTAGGACG,switch fluorescence ratio,1
GGGCAGATGC,switch fluorescence ratio,0.955
TTGACTGTAT,switch fluorescence ratio,1.02
TCCAACATGA,switch fluorescence ratio,1
ACAACCCCGC,switch fluorescence ratio,1.41
GAAGTTGAAC,switch fluorescence ratio,0.979
GAGAGCTGCT,switch fluorescence ratio,0.956
GTCTCTATTC,switch fluorescence ratio,1.03
CGGCGCTTGC,switch fluorescence ratio,1.68
AATATGTTGG,switch fluorescence ratio,0.964
GTAAGCAAGT,switch fluorescence ratio,1.13
CTTTCTATA,switch fluorescence ratio,0.92
CATATCAAAC,switch fluorescence ratio,1.03
AGTCGGCTTA,switch fluorescence ratio,1.03
AACGGGAACA,switch fluorescence ratio,1.07
ATAAGCAACG,switch fluorescence ratio,1.06
AGAGGTGGTG,switch fluorescence ratio,0.931
TGGGCATGCT,switch fluorescence ratio,1.05
TAGATCCGAT,switch fluorescence ratio,0.96
TTTACAGTTT,switch fluorescence ratio,1.05
CCGCACGGGG,switch fluorescence ratio,1.45
GACTTTCAAC,switch fluorescence ratio,1.02
TTCGAAGAAA,switch fluorescence ratio,1.02
TGGAACCTTT,switch fluorescence ratio,2.54
CTTCCGATCG,switch fluorescence ratio,1.07
TCAAACTCA,switch fluorescence ratio,1.02
TTTCTTTTCC,switch fluorescence ratio,1.08
ATCGTTGAGA,switch fluorescence ratio,1.01
GCGTAGGAAT,switch fluorescence ratio,1.2
TTCCGCCGGC,switch fluorescence ratio,1.27
CCATCGGGCC,switch fluorescence ratio,1.1
TGGCGTAGGC,switch fluorescence ratio,0.994
CAGGGTTCAA,switch fluorescence ratio,0.978
TCACAGGAAA,switch fluorescence ratio,1.26
ACCTTAGACG,switch fluorescence ratio,1.12
AGCTCGGCCT,switch fluorescence ratio,0.992
GCAGATTGGG,switch fluorescence ratio,1
AACTACATTA,switch fluorescence ratio,1.06
CACAAAGGTG,switch fluorescence ratio,1.98
GGCTGAAACA,switch fluorescence ratio,0.998
AGTCTTAGGT,switch fluorescence ratio,0.975
GGAATGGTAA,switch fluorescence ratio,1
TGAACTTATG,switch fluorescence ratio,1.01
TAATTTTCCC,switch fluorescence ratio,1.04
GACGTTTGCA,switch fluorescence ratio,1.05
GAATTAAGTA,switch fluorescence ratio,0.988
TGCTCTCATG,switch fluorescence ratio,1.01
GCCCGAGACG,switch fluorescence ratio,1.01
TAGAGCAT,switch fluorescence ratio,1.05
CTTTGTTGTG,switch fluorescence ratio,0.971
TCCCTGACGG,switch fluorescence ratio,1.03
ACGCTCAACT,switch fluorescence ratio,1.18
GAGGTGAGCT,switch fluorescence ratio,1.01
CATGGCTTGG,switch fluorescence ratio,0.963
TGATTGTGAG,switch fluorescence ratio,1.01
AAGTTTGAGC,switch fluorescence ratio,0.902
ATAGATTAAG,switch fluorescence ratio,0.987
CAGATGTTG,switch fluorescence ratio,1.05
TACTTCCAT,switch fluorescence ratio,1.04
AAATGAATAG,switch fluorescence ratio,0.958
GCTGTCTTGA,switch fluorescence ratio,0.977
AAATTCGGAA,switch fluorescence ratio,1
TTCAACGATT,switch fluorescence ratio,0.981
GGTGCTTTGA,switch fluorescence ratio,1
GCGCCAGAAA,switch fluorescence ratio,0.993
GTAATCTCTA,switch fluorescence ratio,0.987
CGGGCTGAAC,switch fluorescence ratio,1.01
GTCCATGGGG,switch fluorescence ratio,1.02
GTCTTTCTGC,switch fluorescence ratio,0.869
GAACGTATTC,switch fluorescence ratio,1.08
CGTGTAGGCC,switch fluorescence ratio,0.984
TGTAGTACTC,switch fluorescence ratio,2.25
ACTGAGTATG,switch fluorescence ratio,0.99
CACGTCAGAC,switch fluorescence ratio,1.3
TGGCCGAGGT,switch fluorescence ratio,0.978
GCTGGCTTCT,switch fluorescence ratio,1.07
TTTGGACACT,switch fluorescence ratio,1.03
GAGTCTGTTT,switch fluorescence ratio,0.964
GTGGGACTAC,switch fluorescence ratio,1.45
AATCGACTTT,switch fluorescence ratio,0.996
ACTCCTCCGC,switch fluorescence ratio,1.44
ATGAGTTGCA,switch fluorescence ratio,0.977
CCGGAGAGTA,switch fluorescence ratio,1.94
AGTCTAGG,switch fluorescence ratio,1
ACCATAGGGC,switch fluorescence ratio,1.01
ACTGCACCCG,switch fluorescence ratio,1.35
AGAGCTCTAA,switch fluorescence ratio,0.993
CATGTAGGGG,switch fluorescence ratio,1.03
TACGATCTGT,switch fluorescence ratio,0.971
AGCCGTTGTT,switch fluorescence ratio,0.971
AGTCGCGTAT,switch fluorescence ratio,0.998
GATGGGATTC,switch fluorescence ratio,0.986
AGAAGATATA,switch fluorescence ratio,1.03
CCTAAAACTA,switch fluorescence ratio,1.06
GCAGCGTGAA,switch fluorescence ratio,0.996
GGATGCGACG,switch fluorescence ratio,1.05
CATGGTGTAA,switch fluorescence ratio,0.997
AGTAGGAGGG,switch fluorescence ratio,0.995
AAACGTGT,switch fluorescence ratio,0.982
CCTAATGATA,switch fluorescence ratio,0.967
CGCAGACTTT,switch fluorescence ratio,1.23
CTTGGAAGAC,switch fluorescence ratio,2.15
CGTTATGAGT,switch fluorescence ratio,1.01
TTCATCGGTA,switch fluorescence ratio,0.993
TCACGAAGAA,switch fluorescence ratio,0.974
CGTATTACTT,switch fluorescence ratio,1.04
CAAAGTCGTG,switch fluorescence ratio,0.968
GGGAGGAGAG,switch fluorescence ratio,1.03
GAGTTTAACT,switch fluorescence ratio,0.973
GTGATAAAT,switch fluorescence ratio,1.29
GACCGTACCT,switch fluorescence ratio,1.71
TTATGATCGG,switch fluorescence ratio,1.01
TGAACTGGGA,switch fluorescence ratio,0.992
TCCCGGATGA,switch fluorescence ratio,1.02
TATAGTGATA,switch fluorescence ratio,1
TTAGGTGCTA,switch fluorescence ratio,1.73
CCCTTGGTTG,switch fluorescence ratio,1.09
AAAGGCCTTT,switch fluorescence ratio,1.02
TTCAGCGGTT,switch fluorescence ratio,1.06
TGATATGTTG,switch fluorescence ratio,1.01
GATACGGGGG,switch fluorescence ratio,0.92
GTGCACCATA,switch fluorescence ratio,0.965
GTGACAGAAG,switch fluorescence ratio,1.01
CTCAGGAAGC,switch fluorescence ratio,1.47
TAACCGGTTG,switch fluorescence ratio,1.05
GAGGTACGAT,switch fluorescence ratio,0.996
CCAGGGTTAG,switch fluorescence ratio,1.01
AACGATATTA,switch fluorescence ratio,0.991
ACCACTTAAG,switch fluorescence ratio,1.04
TTAGGCCTTA,switch fluorescence ratio,0.972
ACGCCCAGTA,switch fluorescence ratio,1.05
ACATTTTGGA,switch fluorescence ratio,0.961
GAAACAAGA,switch fluorescence ratio,0.993
GGTAAGTATT,switch fluorescence ratio,1.02
TCTACCCTAT,switch fluorescence ratio,1.05
TTAGGGTGAC,switch fluorescence ratio,1.01
CCATCCCAAG,switch fluorescence ratio,1.56
